# Experimental data from PubChem BioAssay AID624417 (National Center for Advancing Translational Sciences (NCATS), 2012).
# Screen size: about 410,000 compounds; about 6,400 (1.6%) were called active. This list was built around the results that the source calls inconclusive (neither active nor inactive); the mix of calls is not that of the screen. Calls follow the shape of the dose curve; as a rule, active = well fitted inhibition curve with a large enough effect; inconclusive = small, poorly fitted or top-dose-only effect; inactive = no such curve, though single readings can be large or run the other way. Potencies of inconclusive entries are left out as doubtful fits.
# Molecular target: Glucagon-like peptide 1 receptor (Homo sapiens) (UniProt P43220)
# Sequence of UniProt P43220 (P43220 whole entry, looked up): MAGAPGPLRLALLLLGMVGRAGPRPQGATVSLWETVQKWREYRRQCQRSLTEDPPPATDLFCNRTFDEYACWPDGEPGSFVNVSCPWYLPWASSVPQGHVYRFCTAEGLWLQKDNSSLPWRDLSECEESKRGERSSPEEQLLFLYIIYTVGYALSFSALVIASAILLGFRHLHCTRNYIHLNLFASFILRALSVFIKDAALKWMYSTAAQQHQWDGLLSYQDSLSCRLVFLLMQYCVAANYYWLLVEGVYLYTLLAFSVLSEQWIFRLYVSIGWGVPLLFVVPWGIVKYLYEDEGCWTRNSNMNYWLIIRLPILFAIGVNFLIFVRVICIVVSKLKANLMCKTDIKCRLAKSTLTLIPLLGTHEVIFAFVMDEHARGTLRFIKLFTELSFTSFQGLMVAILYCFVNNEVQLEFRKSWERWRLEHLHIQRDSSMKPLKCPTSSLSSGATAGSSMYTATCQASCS
# Assay: qHTS of GLP-1 Receptor Inverse Agonists (Inhibition Mode); also: nearly all actives have a fitted effect of over 55% in size
# Conditions: HEK293 GLP-1R CRE-luciferase, luminescence, 24 h, GLP-1R form is constitutively active; activity change, negative = inhibition: at 38.3 µM (top of the series) unless noted
# Outline: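 Constitutively active GLP-1R drives a cAMP-responsive luciferase in stably transfected HEK293 cells; test compounds are added after overnight (12 h) attachment and left 24 hr, and signal loss in luminescence marks inhibition.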
# % is scaled to controls: 0 for no effect and ±100 for the full control effect; potency is read from the fitted curve at half-maximal effect; tags tell the direction and shape of the fitted curve.
SMILES,Potency,"activity change, negative = inhibition"
Cc1ccc(C)c(NC(=O)c2cnn(-c3cccc(F)c3)c2C2CCN(C(=O)OC(C)(C)C)CC2)c1,"inconclusive [inhibitor, partial curve, poor fit]",
CCOc1ccc(NS(=O)(=O)c2ccc(-c3cc(C)no3)s2)cc1,,inactive: -10.9%
COc1cccc(NC(=O)c2ccccc2-c2nc(-c3cccc(C)c3)no2)c1,"inconclusive [inhibitor, single point]",
CC1(C)CC(NS(=O)(=O)OCC(Cl)(Cl)Cl)c2cc(C#N)ccc2O1 (stereo not given),"inconclusive [inhibitor, single point]",
N#C/C(=C\c1ccc(OC(F)F)cc1)C(=O)N1CCCCC1,"inconclusive [inhibitor, single point]",
CCOC(=O)/C(=C/c1ccc(N2CCC(c3ccccc3)=N2)cc1)C(C)=O,"inconclusive [inhibitor, full curve, poor fit]",
O=C(c1cc2cc(F)ccc2[nH]1)N(Cc1cccnc1)CC1CCCN(C2CCCCC2)C1 (stereo not given),"inconclusive [inhibitor, partial curve, poor fit]",
O=C(Cn1cc(SCc2c(F)cccc2Cl)c2ccccc21)N1CCCCCC1,active: 10 µM,
Cc1cccc(CN2C(=O)c3ccccc3Sc3ccc(C(=O)O)cc32)c1,"inconclusive [inhibitor, single point]",
COc1cc(CSC)nc(-c2ccccc2)n1,"inconclusive [inhibitor, single point]",
COc1ccc(-n2nc(C(=O)N(C)c3cc(C)ccc3C)c3c4ccccc4n(C)c3c2=O)cc1Cl,,inactive: -8.06%
CN1C=C/C(=C\c2cc[n+](C)c3ccccc23)c2ccccc21,"inconclusive [inhibitor, full curve]",
O=C(CCCC(=O)c1ccc(O)cc1)c1ccc(O)cc1,,inactive: -13.3%
Cc1cc(C)c2ccc(/C=N/O)nc2c1O,"inconclusive [inhibitor, partial curve, poor fit]",
O=S(=O)(NC1CCCCCCC1)c1ccc(F)cc1,"inconclusive [inhibitor, single point]",
CCOC(=O)c1scc(-c2ccccc2)c1S(=O)(=O)Nc1cc(OC)cc(OC)c1,"inconclusive [inhibitor, single point]",
COc1ccccc1NC(=O)Nc1nc(C(N)C(C)C)cs1 (stereo not given),"inconclusive [inhibitor, single point]",
O=C(COC(=O)C1CC2C=CC1C2)Nc1cccc(S(=O)(=O)N2CCCCCC2)c1 (stereo not given),"inconclusive [inhibitor, single point]",
O=C(Oc1cccc(N2C(=O)C3C4c5ccccc5C(c5ccccc54)C3C2=O)c1)c1ccco1 (stereo not given),"inconclusive [inhibitor, single point]",
CC(C)Oc1ccc(CNC(=O)CCCN2C(=O)c3cccnc3Oc3ccc(Cl)cc32)cc1,,inactive: -14.5%
CC1CCN(c2oc(-c3ccco3)nc2S(=O)(=O)c2ccccc2)CC1,"inconclusive [inhibitor, single point]",
CCN(C(=O)c1cc2c(s1)-c1c(C)cccc1OC2)c1ccccc1F,"inconclusive [inhibitor, partial curve, poor fit]",

SMILES,Potency,"activity change, negative = inhibition"
COc1ccc(N2CCN(C(=O)Cc3coc4cc(C)ccc34)CC2)cc1,"inconclusive [inhibitor, single point]",
O=[N+]([O-])c1ccc(N/N=C/c2cccc(O)c2O)c(S(=O)(=O)N2CCOCC2)c1,,inactive: -13.3%
O=C(CN1CCN(S(=O)(=O)c2ccc(Br)cc2)CC1)c1ccc(O)c(O)c1,,inactive: 13.1%
OCCN1CCN(CC(O)COc2ccc(-c3ccccc3)cc2)CC1 (stereo not given),"inconclusive [inhibitor, partial curve, poor fit]",
O=[N+]([O-])c1ccc(N/N=C/c2cn(-c3ccccc3)nc2-c2ccccc2)cc1,"inconclusive [inhibitor, full curve, poor fit]",
Cc1ccc(NC(=O)CCCN2C(=O)/C(=C/C=C/c3ccccc3)SC2=S)cc1,,inactive: 5.2%
Cn1c(=NC(=O)c2ccco2)sc2ccccc21,,inactive: -12.3%
O=C(NCCCN1CCN(c2cccc(Cl)c2)CC1)c1ccc(N2CCCC2=O)cc1,"inconclusive [inhibitor, partial curve, poor fit]",
Cc1cccc(OCC(=O)Nc2cccc(C(=O)OCc3cc(=O)n4c(C)csc4n3)c2)c1,"inconclusive [inhibitor, single point]",
CSc1cccc(NC(=O)c2[nH]c(C)c(C(C)=O)c2C)c1,"inconclusive [inhibitor, single point]",
Cc1nc2scc(C)n2c(=O)c1S(=O)(=O)Nc1ccc(F)cc1,,inactive: 2.59%
O=c1oc(-c2ccccc2)cc(Cl)c1Cl,"inconclusive [inhibitor, single point]",
CCc1cc(=O)oc2cc(C)cc(OC(C)C(=O)NC3CC(C)(C)NC(C)(C)C3)c12 (stereo not given),"inconclusive [inhibitor, single point]",
C=C1C(=O)[C@@]23[C@H](O)C[C@@H]4C(C)(C)CC[C@H](O)[C@]4(C)[C@@H]2C[C@H](O)[C@@H]1[C@H]3O,"inconclusive [inhibitor, partial curve, poor fit]",
COc1ccc(-n2ncc(C(=O)NCc3ccc4c(c3)OCO4)c2C2CCN(C(=O)OC(C)(C)C)CC2)cc1,"inconclusive [inhibitor, single point]",
CCc1cccc(N2C(=O)CSC23C(=O)N(Cc2ccccc2F)c2ccccc23)c1 (stereo not given),"inconclusive [inhibitor, single point]",
COC(=O)c1ccc(Sc2ccccc2NS(=O)(=O)c2ccc(C)cc2)nc1,"inconclusive [inhibitor, partial curve, poor fit]",
CCN(CC)CCCNC(=O)C(C)Sc1nc(-c2ccccc2)cc(C(F)(F)F)n1 (stereo not given),active: 2.82 µM,
CC(OC(=O)c1cc2sccc2n1C)C(=O)NCCc1ccccc1 (stereo not given),"inconclusive [inhibitor, single point]",
Cc1cc(C(=O)N/N=C/c2ccc(OCc3ccccc3)cc2)c(C)o1,active: 11.2 µM,
O=C(Cc1ccccc1)NCc1ccc(-n2cccc2)cc1,"inconclusive [inhibitor, full curve, poor fit]",
Cc1ccc(-c2cc(C)nc3ncnn23)cc1,,inactive: -5.12%

SMILES,Potency,"activity change, negative = inhibition"
O=S(=O)(N/N=C\C=C\c1ccccc1)c1ccc(Cl)cc1,"inconclusive [inhibitor, partial curve, poor fit]",
CCSc1nc2sccc2c(=O)n1-c1ccccc1,"inconclusive [inhibitor, partial curve, poor fit]",
N#CCSc1nnc(-c2sc3ccccc3c2Cl)o1,"inconclusive [inhibitor, single point]",
COC(=O)c1scc(-c2ccc(C)cc2)c1S(=O)(=O)Nc1ccc(NC(C)=O)cc1,"inconclusive [inhibitor, single point]",
Clc1ccc(OCCNCCc2ccccc2)cc1,"inconclusive [inhibitor, single point]",
COc1cccc(-c2cccc(NC(=O)C3CCN(Cc4ccc(C)o4)CC3)c2)c1,"inconclusive [inhibitor, single point]",
Cc1nc2nc(COc3ccccc3)nn2c(C)c1Cl,,inactive: 16.3%
CNS(=O)(=O)c1cn(CC(=O)N2CCN(c3ccc(Cl)cc3)CC2)cc1S(=O)(=O)NC,,inactive: 10.6%
Cc1nc2ccccc2c(=O)n1N(c1ccccc1)c1ccccc1,"inconclusive [inhibitor, single point]",
CCCc1c(-c2ccc(Cl)cc2)ncn1CCc1ccccc1OC,"inconclusive [inhibitor, single point]",
CSCc1c(C(=O)Nc2ccc3c(c2)OCO3)oc2ccccc12,"inconclusive [inhibitor, partial curve, poor fit]",
CCN1C(=O)C(CC(=O)Nc2ccc(F)cc2)N(CCc2ccc(OC)cc2)C1=S (stereo not given),"inconclusive [inhibitor, single point]",
CCc1nc2ccc(C(=O)N(C)CCCN(C)C)cn2c1N(C)CCCc1ccccc1,"inconclusive [inhibitor, single point]",
CCC(C)(C)c1ccc(OCCCC[n+]2ccc(C)cc2)c(C(C)(C)CC)c1,"inconclusive [inhibitor, partial curve, poor fit]",
Cc1cc(C)cc(OC2CCCCC2NS(=O)(=O)c2ccccc2)c1 (stereo not given),"inconclusive [inhibitor, partial curve, poor fit]",
Fc1cccc(NC(=S)NNc2ccccc2)c1,"inconclusive [inhibitor, partial curve, poor fit]",
Nc1nn(-c2cccc(F)n2)cc1-c1ccc(Cl)cc1,"inconclusive [inhibitor, single point]",
CC1CC(C)CN(C(=O)c2ccc3ccccc3c2)C1 (stereo not given),"inconclusive [inhibitor, partial curve, poor fit]",
COc1ccc(CC(=O)NCC(c2ccc(N(C)C)cc2)N2CCOCC2)cc1OC (stereo not given),,inactive: 10.5%
CC1CCN(S(=O)(=O)c2ccc(NC(=O)CN3CCN(c4ccccc4)CC3)cc2)CC1,"inconclusive [inhibitor, single point]",
CCCCNC(=O)c1cnn2c(C)c(Cc3c(C)cc(C)cc3C)c(C)nc12,"inconclusive [inhibitor, full curve, poor fit]",
